# The other results are listed elsewhere or left out.
# B1: chr1:120316058:120316059:+_ENSMUSG00000064302_ENSMUST00000049404|mus_hu|motif|central (ssRNA)
# RNA: GGGAGUUCUACAGUCCGACGAUCCACCAUGUGUGUCUGAAGAGCAGCUGGUAGGAUAUUAAAAGUCCAAUUUAAAUAACGGGUAGGAGAUAAAGGAGUGAGUGGCAGAGUGAUGUUCUACUACUGGGUCUGAAAUACUUCAUACAACAGAGGAUUGAGCAUCA
# B2: chr5:132203191:132203192:+_ENSG00000164405_ENST00000378667|hu_hu|FALSE|FALSE (ssRNA)
# RNA: GGGAGUUCUACAGUCCGACGAUCAUUCUUCCUCUUGGAUCUCUCGAACUCUUCAGUCCCCCAUGUGUAGAUAAGAUAAAACACUACAAACUGCGGCACCACGCGAAAGAAAGACUCCCGAAUGCGGCGCAGAACAUUGGGGAUCAACAGAGGAUUGAGCAUCA
# B3: 26019306_26019426_1933_ncRNA_ENSMUSG00000025730_ENSMUST00000166619|mouse|control|control (ssRNA)
# RNA: GGGAGUUCUACAGUCCGACGAUCGGCAGUUCCCACAACCAUAGCCCCGUCCCUCCCUACAGGCAUUGACUCAAUCUCCCAGAACAGCAGGCUGGCGCAGCGUCUACCAGUGCCCUAGUAACAUCCAUGGUAAGAUGAUCUUAGCAACAGAGGAUUGAGCAUCA
# B4: chr1:121469438:121469439:-_ENSMUSG00000026383_ENSMUST00000052404|mus_mus|FALSE|FALSE (ssRNA)
# RNA: GGGAGUUCUACAGUCCGACGAUCCUGGCUGUUGACAUUAAUGUCAAUGGUAGGUCGAAGAGAUGGCAAGAUAGUCUGCUCUGUUUCAAGCUGUUUAAGCUUCUCUGUGUCAUCCUUUAAUGUCUCACAUUCAGCUUUGAAUUCCAACAGAGGAUUGAGCAUCA
# B5: chr19:58870598:58870599:-_ENSMUSG00000025092_ENSMUST00000066285|mus_hu|motif|central (ssRNA)
# RNA: GGGAGUUCUACAGUCCGACGAUCAUCUUUGACUAAUAAUGCAUUCUGACUCCUGUUUACAUUGGUGCAUGCGAUUCUUUGCGGCCCUGGCAAUUAACCAGACCUGGACUCUAAAAGCUAAACUUGGUCUAAAUAACAUUCUAACAACAGAGGAUUGAGCAUCA
# B6: chr20:35282059:35282060:-_ENSG00000101079_ENST00000349004|hu_mus|FALSE|FALSE (ssRNA)
# RNA: GGGAGUUCUACAGUCCGACGAUCGCUGGUCACAGACCUGCUAAAGGGACUUUCUCCAGAGCCAAUGCUACUUGAGGUGGAGUGGGUUCGUGAUCGGGCGAGCCGGGUCAUGCUGGCAGAUGGUAUGUAGCCCAUUCCCUGCAACAACAGAGGAUUGAGCAUCA
# B7: chr7:65705475:65705476:+_ENSG00000169902_ENST00000304842|hu_hu|hu_hu_hu_mus_True|68_98 (ssRNA)
# RNA: GGGAGUUCUACAGUCCGACGAUCUCUAUUCGGUGAUGGCAUUCCAUGGCAUGCUGGCCCAGGUAAAACACAGUCACAGAACUAAUCACCAGACACGCCAAGAGUAAGUUCUGCUUCAGCUUCCCAACCAUCUUGAUGUGGUUACAACAGAGGAUUGAGCAUCA
# B8: chr7:30656748:30656749:+_ENSG00000106105_ENST00000389266|hu_hu|motif|central (ssRNA)
# RNA: GGGAGUUCUACAGUCCGACGAUCAUCUGGAGAUAUUCCAACCUUCGUGAGGUAGAGGUAGAUGCGGCCAAUGAAAUAGCCGGAUACUGUGUUAUUAAUCACACCCUGUUCAACAGCAUCUCCCAGGCGCAUUUUCCGAGCGGACAACAGAGGAUUGAGCAUCA
# B9: 116110112_116112142_1374_CDS_ENSMUSG00000020780_ENSMUST00000021133|mouse|control|control (ssRNA)
# RNA: GGGAGUUCUACAGUCCGACGAUCAGGAAGCUGCAGCAAUUCCACCAGAUUCUGCAGAAUGAUGUCAUAGAGCCGGAUGAGGUCCUGAGGCCUGGGAGAGCGCUUGCUGUCAUCUUCCGGCUGCUGCUGCAGCAGAGCCCUGUGCAACAGAGGAUUGAGCAUCA
# B10: chr5:37680062:37680063:+_ENSMUSG00000029121_ENSMUST00000031004|mus_hu|mus_mus_mus_hu_False|58_78 (ssRNA)
# RNA: GGGAGUUCUACAGUCCGACGAUCUUUGGGUGUAGCUGGUACCUCGUACACAGGACCAUCGUACAUGCCCCUGGAAACACUAUGCAAUCCAAAAACCUUAUUCCUGAUUUUGACGCGCUGGUACAGGUGCUCCGGGAACGCCUUCAACAGAGGAUUGAGCAUCA
# B11: chr7:125879632:125879633:+_ENSMUSG00000033904_ENSMUST00000106557|mus_hu|motif|central (ssRNA)
# RNA: GGGAGUUCUACAGUCCGACGAUCGCAAUAUUCUUAUCCGGAAAUCUGGAUUUAUUAUUAUAUAGCCCUUUAUUCUCUCCGGAAUCAAGCAUGCUAGAAAAAACAGACUAUGAAGAACAAAAUAUACAGACUAAAUAGAAAAUACAACAGAGGAUUGAGCAUCA
# B12: chrX:71549762:71549763:+_ENSMUSG00000019087_ENSMUST00000019231|mus_mus|mus_mus_mus_hu_False|88_88 (ssRNA)
# RNA: GGGAGUUCUACAGUCCGACGAUCAAACCCGUGUACUUCUUAUUGUUACAUCACCCCCACCAGAAAACGAUAACGACAGCCAAGCAGGACAGACAGUUAAGUAGUACUUCCACACUCCCAAACUCAGGGAGCCCUAUAACCUUACAACAGAGGAUUGAGCAUCA
# B13: chr7:31081878:31081879:+_ENSMUSG00000013921_ENSMUST00000014065|mus_hu|FALSE|FALSE (ssRNA)
# RNA: GGGAGUUCUACAGUCCGACGAUCGAUGGUGGUCUGAGGGUCAAACAGGAUCUCCUGGCACGCCGGGUCAUUGGGAUCGAAGAAGGUGAAAGCGUAGUCCUUAGGGAGGGGGGCAGGUGCCGAGGGGUGCACAACAGGCUUCUGCAACAGAGGAUUGAGCAUCA
# B14: chr3:108394432:108394433:+_ENSMUSG00000040389_ENSMUST00000051145|mus_hu|FALSE|FALSE (ssRNA)
# RNA: GGGAGUUCUACAGUCCGACGAUCAGGAGAACGCGGCUGGGAGGCCGGCGGCCAGGGCCCCGAAGCGGCCGGCUCCGGGCUGCGGCAGGAGCACGACGGCGGCGGUCUGGGUUUGGCGUCGGUCCUCCCUCCUACCGCCCGCGCCAACAGAGGAUUGAGCAUCA
# B15: chr13:31722580:31722581:-_ENSG00000120694_ENST00000320027|hu_mus|motif|central (ssRNA)
# RNA: GGGAGUUCUACAGUCCGACGAUCCGAGUCGUGGUUCCAGACCAGAGAUAUUGGAAAAGGAACUGCAUCGGUGACAGAGAACUCUCGGACUUUAAAUGCCGGAGAAAGAAUUGCACACUGCAGUGCACAGCCUCUGGCCACAGCCAACAGAGGAUUGAGCAUCA
# B16: chr5:122939345:122939346:-_ENSMUSG00000029467_ENSMUST00000031423|mus_hu|FALSE|FALSE (ssRNA)
# RNA: GGGAGUUCUACAGUCCGACGAUCCUUUCUGUCCUGUCGAUACACUUUGCCCAUUUCAGGCUCAUAUUCCUUAAGGGCUUCGAUGGCAUUUUCAGCAUUUCUUUCCUGCCAUACACCCACAAUUGCAUUGGCUACUAAUAUGAGCAACAGAGGAUUGAGCAUCA
# B17: chr7:36537692:36537693:-_ENSMUSG00000043671_ENSMUST00000051377|mus_mus|FALSE|FALSE (ssRNA)
# RNA: GGGAGUUCUACAGUCCGACGAUCCAAUUUCUUUUCCAACUUCACAUCUUCUUUUGGUGAUGGAAAAUCCUCAGAAACUUCUAUGGGUUUUGUCUCUUUUCUUUGCCGGAUGUACAUCAUGAUGUCAAAGACUCAUACGCAUUGCAACAGAGGAUUGAGCAUCA
# B18: chr1:107181519:107181520:-_ENSMUSG00000047496_ENSMUST00000058688|mus_mus|FALSE|FALSE (ssRNA)
# RNA: GGGAGUUCUACAGUCCGACGAUCUCACCACUCUGGAUCCCUCUUCUCAAGCUCACAGGGCAUCGAGCAUUCACAAAUGUGCUAAUUUCUGAAUCUGUCACGCGUCCCUUUCACCCCCUUCUGCGUGUUGACAUCAAGUGGAAACAACAGAGGAUUGAGCAUCA
# B19: chr7:126859785:126859786:-_ENSMUSG00000030942_ENSMUST00000033236|mus_mus|FALSE|FALSE (ssRNA)
# RNA: GGGAGUUCUACAGUCCGACGAUCACCUGCAGUGAUGAGACAUCAGAUUUGCAAACAAAACAAACAAAAACCCAAGAAAAACUAACAGCAGAAAGCAUCACAAAGUGAUUCCCAUAUAAUCCACAAUGCAGCUUCUCUAUGUGUCAACAGAGGAUUGAGCAUCA
# B20: chr2:32515631:32515632:+_ENSG00000119820_ENST00000437765|hu_hu|FALSE|FALSE (ssRNA)
# RNA: GGGAGUUCUACAGUCCGACGAUCUUCAGGAUCAUCAUCUUCAACUUCCAGAAGCCAGCCAUAACCUCUUUGUCUCAGAAAUGUAGUAGCUGUAGAUUCUUUGAUAAAAUCUCCACCAAGAUUUAAUUUGACAUCUGGGGAUGCCAACAGAGGAUUGAGCAUCA
# B21: 197128527_197128647_2700_CDS_ENSG00000177888_ENST00000367405|human|control|control (ssRNA)
# RNA: GGGAGUUCUACAGUCCGACGAUCAGUAGUGCUAUCAAGGCCCAGUAAUGUUCCAAGAUAAGAUUGUUCUCUAGGAUCUAGCAUUUGUUCAGGUCGAACUGGGUGAACUAUAUUUGCAGGUUGAGGAGUAAGAGUAUAUUUUUCCAACAGAGGAUUGAGCAUCA
# B22: chr12:16052864:16052865:+_ENSG00000023734_ENST00000419869|hu_mus|FALSE|FALSE (ssRNA)
# RNA: GGGAGUUCUACAGUCCGACGAUCCCACAAUCUCAAUGUCCCAUCUUCAGAACCGCUGGCAUAGAGUUCCCCAUCAGGACUGAAUCUCACACAGUGAAUGGGACCAAAGUGACCUUUGUAGGAUUCUAACUCUUCUCCACUGUUCAACAGAGGAUUGAGCAUCA
# Target: T1, UNK ZnF1-3 (human, UniProt Q9C0B0 31-174)
# T1 sequence: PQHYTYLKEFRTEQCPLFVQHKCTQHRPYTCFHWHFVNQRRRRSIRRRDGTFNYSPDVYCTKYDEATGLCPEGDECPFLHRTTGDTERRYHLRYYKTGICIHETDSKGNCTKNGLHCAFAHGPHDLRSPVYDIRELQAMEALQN
# Experiment: nsRBNS (natural sequence RNA bind-n-seq); RBNS binding buffer (assumed for nsRBNS): 25 mM Tris pH 7.5, 150 mM KCl, 3 mM MgCl2, 0.01% Triton X-100, 500 ug/ml BSA, 20 U/ml SUPERase-In, 4 C; UNK is unkempt and MSI1 is Musashi-1; names of the RNAs are library labels; protein concentration not given here; high values mean tight binding
row,Binder,binding signal [enrichment R]
1,B1,3.05
2,B2,1.14
3,B3,1.17
4,B4,0.501
5,B5,0.819
6,B6,0.582
7,B7,0.61
8,B8,0.897
9,B9,0.753
10,B10,0.608
11,B11,1.67
12,B12,1.84
13,B13,1.79
14,B14,0.654
15,B15,0.858
16,B16,0.626
17,B17,0.49
18,B18,1.69
19,B19,2.19
20,B20,1.21
21,B21,1.48
22,B22,0.851

# Reference: publication PMC12136788
